Test results from PubChem BioAssay AID1508623 (National Center for Advancing Translational Sciences (NCATS), 2021).
Among all 48,000 compounds or so, about 450 (0.94%) were called active. Inconclusive results (about 19%) are left out. Calls come from the whole dose curve; as a rule, active = well fitted inhibition curve with a large enough effect; inconclusive = small, poorly fitted or top-dose-only effect; inactive = no such curve, though single readings can be large or run the other way. The list shows a part of the results.

assay: Primary qHTS for Identification of Small Molecule Inhibitors of Huntingtin Promoter Activity; details: HEK293 HTT promoter firefly luciferase reporter (activity 0% = vehicle and -100% = no light), 24 h; series mostly up to 57.5 µM; activity change, negative = inhibition: at the top concentration; note: nearly all actives have a fitted effect of over 50% in size
Outline: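 Firefly luciferase signal from promoter-reporter HEK293 cells was scaled between vehicle (0%) and zero RLU (-100%). Compounds were tested at final concentrations of up to 57.5 uM over 24 h at 37 degrees C. PTC124 at 50 uM final served as control inhibitor.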
Potency is the fitted concentration of half-maximal effect.

Activity change, negative = inhibition, inactive:
COc1ccc(CNS(=O)(=O)c2cnc(N)nc2)c(OC)c1 0.185%
CS(=O)(=O)c1ccc(-c2nnc(NC(=O)c3ccc4c(c3)OCCO4)o2)cc1 -5.72%
CCC1CN(C(=O)N2CCC(C(=O)NCCN(CC)CC)CC2)c2cc(C)ccc2O1 (stereo unspecified) 1.14%
CC(C)Oc1ccc(CNC(=O)CCCN2C(=O)c3cccnc3Oc3ccc(Cl)cc32)cc1 -15.6%
CCN(C(=O)c1cc2c(s1)-c1c(C)cccc1OC2)c1ccccc1F -25.1%
COc1ccc(CC(=O)N2CCc3cc(OC)c(OC)cc3C2COc2ccc(OC)cc2)cc1 (stereo unspecified) -29.7%
CCOC(=O)c1scc(-c2ccccc2)c1S(=O)(=O)Nc1cc(OC)cc(OC)c1 -1.38%
O=C(Cn1cc(SCc2c(F)cccc2Cl)c2ccccc21)N1CCCCCC1 15.1%
COc1ccc(-n2nc(C(=O)N(C)c3cc(C)ccc3C)c3c4ccccc4n(C)c3c2=O)cc1Cl 31.3%
COc1ccc(-c2c(-c3ccc(O)cc3O)n[nH]c2C)cc1 -28.2% [at 116 µM]
Cc1c(Cl)cccc1NC(=O)c1cnc2sc(N3CCOCC3)nn2c1=O -11.5%
CCN(c1ccccc1)S(=O)(=O)c1ccc(NC(=O)c2cc(=O)c3cc(C)cc(C)c3o2)cc1 4.48%
CCC(=O)N1c2ccccc2CC1C(=O)NCCc1ccccc1C (stereo unspecified) -24.2%
O=C(CSc1cn(CC(=O)N2CCOCC2)c2ccccc12)Nc1ccccc1F -4.33%
O=C(Nc1ccc2nn(-c3ccccc3)nc2c1)c1cc2ccccc2o1 10.9%
COc1ccc(OC)c(CCNC(=O)CCCn2c(=O)c3cccn3c3ccccc32)c1 -3.99%
Cc1cccc(C)c1OCC(C)N (stereo unspecified) 10.4%
O=C(c1ccc2c(c1)N(Cc1ccc(Cl)cc1)C(=O)c1ccccc1S2=O)N1CCOCC1 (stereo unspecified) -25%
Cc1cc(C)c2c(CC(=O)N3CCN(c4cccc(Cl)c4)CC3)coc2c1 -13.5%
CC1CCc2nc3ncn(Cc4ccccc4C#N)c(=O)c3cc2C1 (stereo unspecified) 9.94%
COc1ccc(C(CNC(=O)c2oc3ccc(Cl)cc3c2C)N2CCCCC2)cc1 (stereo unspecified) -10.5%
CCCC(=O)N(c1ccc2oc3c(c2c1)CCCC3)S(=O)(=O)c1cc(C)ccc1C -12.4%
O=C1CC(c2nc3ccccc3[nH]2)CN1c1cccc(Cl)c1 (stereo unspecified) -19.2%
COc1cccc(CSc2nc3cc(C(=O)NC4CCCC4)ccc3c(=O)n2Cc2ccccc2)c1 1.21%
O=C(CSc1nc2ccccc2n1Cc1ccccc1)N1CCN(c2ccc(F)cc2)CC1 -27.8%
COc1ccc(-n2cc(C(=O)NCc3ccccc3)c3ccccc3c2=O)cc1 -12.9%
Cc1cc(Cl)ccc1NC(=O)c1cc(S(=O)(=O)N2CCOCC2)cn1C -30.8%
CSc1ccc(CCNC(=O)C2CCN(c3nc4ccccc4nc3C(F)(F)F)CC2)cc1 -9.01%
O=C(Cn1c(=O)n(Cc2ccc3c(c2)OCO3)c(=O)c2oc3ccccc3c21)Nc1ccccc1 -10.7%
Cc1ccccc1CNC(=O)C1CCN(c2nnc(C)c3c(C)n(-c4ccccc4)nc23)CC1 4.85%
CCc1ccc(-c2nc3ccc(Br)cc3c(C(=O)O)c2C)s1 -29.1%
COC(=O)c1ccc(NC(=O)c2c(NCc3ccc(C)o3)sc3c2CCCC3)cc1 -29.9%
CCc1nnc(NC(=O)c2cc(=O)c3cc(C)c(C)cc3o2)s1 -5.56%
COc1cc(-c2noc(-c3cc4cc(F)ccc4oc3=O)n2)cc(OC)c1OC 0.986%
CN1C(=O)C2(c3ccccc31)N(c1ccccc1)C(=O)CS2(=O)=O (stereo unspecified) -16.3%
Cc1cc(C)c2oc(C(=O)Nc3sc4c(c3C(=O)NCc3ccco3)CCC4)cc(=O)c2c1 16.5%
C[C@@H]1CCN(C(=O)[C@H](CCCN=C(N)N)NS(=O)(=O)c2cccc3c2NC[C@H](C)C3)[C@@H](C(=O)O)C1 -2.04%
COc1ccc(-c2nc3scc(CCNS(=O)(=O)c4c(C)noc4C)n3n2)cc1 -8.92%
Cc1ccc(NC(=O)/C=C/c2ccccc2)c(Br)c1 60.3%
Cc1ccc(C)c(CN2C(=O)c3ccccc3S(=O)(=O)c3ccc(C(=O)Nc4ccccc4C(F)(F)F)cc32)c1 -19%
CN1CCN(C(=O)C(=O)Nc2c3c(nn2-c2ccc(F)cc2)CSC3)CC1 -11%
CC(=O)O[C@@]12CO[C@H]1C[C@H](O)[C@@]1(C)C(=O)[C@H](O)C3=C(C)[C@@H](OC(=O)C(O)[C@@H](NC(=O)OC(C)(C)C)c4ccccc4)C[C@@](O)([C@@H](OC(=O)c4ccccc4)[C@@H]21)C3(C)C (stereo partly specified) -13.3%
Cc1ccc(S(=O)(=O)NCCc2nnc3ccc(SCc4ccccc4C)nn23)cc1 -21.9%
COc1ccc(N2CCN(C(=O)Cn3cnc4nc5c(cc4c3=O)CCCC5)CC2)cc1 -14.8%
CCOC(=O)c1cccc(NC(=O)c2cc(CN3CCCC3)on2)c1 14.4%
Cc1ccc(Cn2cccc2C2=NC(C)(C)CO2)cc1 -7.09%
COc1ccccc1OC(C)C(=O)NCC1(N2CCOCC2)CCCCC1 (stereo unspecified) -14.2%
CC1CCN(S(=O)(=O)c2ccc3c(c2)N(CC(=O)NC(C)C)C(=O)CS3)CC1 -10.2%
Cc1ccc(OC(=O)c2cc(-c3ccc4c(c3)OCCO4)on2)c(C)c1 9.83%
CCc1nn(CCCC(=O)NCc2ccccc2Br)c(=O)c2cc3occc3n12 -21%
COc1ccc(NC(=O)CCNS(=O)(=O)c2cccc3nonc23)cc1 -4.17%
Cc1ccc(OCC(=O)NCC2(N3CCN(C)CC3)CCCCC2)cc1C -7.89%
Cc1c(Cl)ccc2sc(N3CCN(C(=O)c4ccco4)CC3)nc12 20.8%
Cc1ccc(CCNC(=O)CN(c2ccc(C)cc2)S(=O)(=O)c2c(C)noc2C)cc1 -24.7%
COc1ccccc1CNc1ccc(-c2nc(C(C)C)no2)cc1[N+](=O)[O-] -10.2%
Cc1ccc(C)c(NC(=O)Cn2cc(C(=O)c3ccncc3)c(=O)c3cc(F)ccc32)c1 -17.4%
COc1ccc(NC(=O)Cn2cnc3sc(C)c(S(=O)(=O)N4CCN(C)CC4)c3c2=O)cc1OC -4.54%
CN(C)c1ccc(CNc2nc(-c3ccco3)nn2S(=O)(=O)c2ccc3ccccc3c2)cc1 8.8%
O=C(CSc1nc2c(c(=O)[nH]1)CCC2)Nc1ccccc1F 0.973%
Cc1ccc(C(=O)Nc2ccc(Cl)c(-c3nc4ncccc4o3)c2)c(C)c1 44.5%
Cc1ccccc1-c1nc(CNC(=O)Nc2ccccc2)c(C)o1 -1.85%
CCOC(=O)C1CCN(C(c2ccccc2OC)c2c(O)cc(C)n(CCOC)c2=O)CC1 (stereo unspecified) -12.6%
COc1cccc(-c2nc(-c3ccc(-c4ccccc4)nc3OC)no2)c1 16.9%
O=C(Nc1ccc(F)cc1)[C@H](Cc1ccccc1)N1Cc2ccccc2C1=O -18.5%
CN(C(=O)C(Cl)Cl)c1ccc(OC(=O)c2ccco2)cc1 6.42%
Cn1nnnc1SCCCNCc1cccc(OCc2ccc(Cl)cc2)c1 -10.9%
CCc1cc(Nc2nccc(-c3c(-c4ccc(OC)c(C(=O)Nc5c(F)cccc5F)c4)nc4ccccn34)n2)c(OC)cc1N1CCC(N2CCN(S(C)(=O)=O)CC2)CC1 1.18%
CCOc1ccccc1NC(=O)C1CCN(S(=O)(=O)c2c(C)noc2/C=C/c2ccc(C)cc2)CC1 -7.95%
O=C(c1cc2c(=O)oc3ccccc3c2s1)N1CCN(c2cccc(Cl)c2)CC1 -11.4%
COc1cc(/C=C/C(N)=O)cc(OC)c1OC 21.6%
CCOC(=O)N1CCN(C(=O)CN(c2cccc(Cl)c2C)S(=O)(=O)c2ccc(C)cc2)CC1 -32.8%
O=C(Nc1ccccc1)c1cccc2c(=O)c3c([nH]c12)CCCC3 -11.5%
COc1ccccc1-c1nc(-c2ccc(Br)o2)no1 24.1%
Cc1cccc(-n2c(SCC(N)=O)nc3c(oc4ccccc43)c2=O)c1 -17.8%
COCCn1c(SCC(=O)c2cc(C)ccc2C)nc2cc(C(=O)NC3CCCC3)ccc2c1=O -28.4%
Cc1cc(C)cc(NC(=O)c2cc(S(=O)(=O)N3CCCCCC3)cn2C)c1 -9.14%
Nc1ccn([C@H]2CC[C@@H](CO)O2)c(=O)n1
Cc1nn(CC(=O)NC2CC2)c(=O)c2cc3ccccc3n12 -7.64%
CCN(CC)CCN(C(=O)c1ccco1)c1nc2ccc(Cl)cc2s1 1.71%
Cc1ccc(-n2nc3c(N4CCC(C(=O)NC(C)C)CC4)nnc(C)c3c2C)cc1 -5.92%
Cc1ccc(NC(=O)Cn2c(-c3ccc4c(c3)OCO4)cn(-c3ccccc3)c2=O)cc1C 15.6%
Cc1c(Cl)cccc1-n1ncc(C(=O)Nc2ccc3c(c2)OCCO3)c1C1CCN(C(=O)OC(C)(C)C)CC1 -24.9%
CCOc1ccc(-c2nc(SC(C(C)=O)C(=O)N(C)C)c3c(=O)n(C)c(=O)n(C)c3n2)cc1 (stereo unspecified) -3.19%
CCc1ccc(NC(=O)c2ccc3c(c2)nnn3CC)cc1 0%
Cc1ccccc1OCC(=O)OCc1cc(=O)n2ccsc2n1 -12.9%
Cc1ccc2cc3cc(C(=O)Nc4ccc(F)cc4Cl)oc3nc2c1 -6.3%
CCc1ccc(OC(C)C(=O)Nc2c(C(=O)c3ccccc3)oc3ccccc23)cc1 (stereo unspecified) -18.3%
COc1ccc(Cl)cc1NC(=O)c1cc2c(s1)-c1ccccc1OC2 4.92%
COCCNC(=O)CCc1nc2cccnc2n1Cc1ccc(OC)cc1 -7.12%
Oc1c(Br)cc(Br)cc1-c1nc2ccccc2s1 -6.03%
CS(=O)(=O)N(CC(=O)NCCSc1ccccc1)c1cc(C(F)(F)F)ccc1Cl -22%
COc1ccc(OC)c(NC(=O)CSc2cn(CC(=O)N3CCOCC3)c3ccccc23)c1 -4%
COc1cccc(C2C(C(=O)Nc3ccccc3)=C(C)Nc3nc(-c4ccccc4)nn32)c1 (stereo unspecified) 1.24%
CCCN(CCC)C(=O)C1CCCN(S(=O)(=O)c2ccc3c(c2)oc(=O)n3C)C1 (stereo unspecified) -14.4%
O=C(c1ccccc1)c1ccccc1NC(=O)c1ccccc1C(=O)O -15.7%

Potency, active:
Cn1c(SCc2ccc(F)cc2)nc2ccc(C(=O)NCc3ccc(F)cc3)cc21 25.1 µM
